Measured values taken from PubChem BioAssay AID686979 (National Center for Advancing Translational Sciences (NCATS), 2013).
Values joined by “and” are separate entries in the source; they are usually repeats but may differ in a detail not shown here. Identical values can stand only once. Screen size: about 420,000 compounds; about 50,000 (12%) were called active. This list was built around the results that the source calls inconclusive (neither active nor inactive); the mix of calls is not that of the screen. Calls follow the shape of the dose curve; as a rule, active = well fitted inhibition curve with a large enough effect; inconclusive = small, poorly fitted or top-dose-only effect; inactive = flat fitted curve, though single readings scatter. Potencies of inconclusive entries are doubtful fits and often do not repeat.
% is scaled to controls: 0 for no effect and ±100 for the full control effect; potency is read from the fitted curve at half-maximal effect; tags tell the direction and shape of the fitted curve.

Test: qHTS for Inhibitors of human tyrosyl-DNA phosphodiesterase 1 (TDP1): qHTS in cells in presence of CPT; also: nearly all actives have a fitted effect of over 55% in size
Conditions: chicken DT40 Tdp1-/-;hTDP1 cells + 20 nM CPT, ATP luminescence, 48 h; activity change, negative = growth inhibition: at 46.2 µM (top of the series) unless noted
Summary of the method: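 Chicken DT40 Tdp1-/- cells complemented with human TDP1, 400 cells/well, exposed to compounds plus 20 nM camptothecin for at least 48 h at 37 C; viability read as ATP content by CellTiter-Glo luminescence.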
In the case of `Cc1ccc(/C=C(\C#N)C(=O)Nc2cc(C)ccc2C)cc1`, the Potency is reported as inconclusive: 14.6 µM [inhibitor, partial curve, poor fit].
For `CSc1ccc(CN2CCC(C)(Oc3cnc(Cl)c4ccccc34)C2)cc1` (stereo not given), the Potency was inconclusive: 29.1 µM [inhibitor, single point].
In the case of `CCOc1ccc(C(=O)NCCC(=O)NCCCC(=O)O)cc1`, the Potency is reported as “inactive”.
In the case of `CCCc1nc2ccc(NC(C)=O)cc2c(=O)n1Cc1ccc(Cl)cc1`, the Potency is reported as inconclusive: 18.4 µM [inhibitor, single point].
In the case of `Cc1cccc(NC(=O)C(C)SCc2nc3sc4c(c3c(=O)[nH]2)CCCC4)n1` (stereo not given), the Potency is reported as inconclusive: 25.9 µM [inhibitor, single point].
For `Cc1ccc(C)c(N2CCN(C(=O)c3cnc4c(-c5ccccc5)c(C)nn4c3C)CC2)c1`, the Potency was active: 25.9 µM.
In the case of `CCN1CCC(N(Cc2cccc(OC)c2)C(=O)Nc2cccc(C(F)(F)F)c2)CC1`, the Potency is reported as inconclusive: 25.9 µM [inhibitor, single point].
With `O=C(NCc1ccc2c(c1)OCO2)c1nc(Cn2cc([N+](=O)[O-])cn2)no1` the Potency was “inactive”.
With `C=CC[C@@H](CC(=O)N[C@H](CO)Cc1ccccc1)C(=O)N[C@H](C)COC(=O)[C@@H](CC=C)Cc1ccc(F)cc1` the Potency was active: 20.6 µM.
In the case of `CC(OC(=O)Cc1c(F)cccc1Cl)C(=O)NCCC1=CCCCC1` (stereo not given), the Potency is reported as inconclusive: 29.1 µM [inhibitor, single point].
With `Nc1nonc1-n1nnc(C(=O)N/N=C/c2cccs2)c1CSc1ccccc1` the Potency was “inactive”.
With `CCN(CC)c1ccc(C(=O)NCc2ccc3c(c2)CCN3C(=O)c2ccccc2)cc1` the Potency was active: 20.6 µM.
For `CSc1nc(S(=O)(=O)c2ccc(C)cc2)c(Cl)s1`, the Potency was “inactive”.
In the case of `O=C(NCc1cccnc1)c1ccccc1NS(=O)(=O)c1ccc(F)cc1F`, the Potency is reported as “inactive”.
For `Cc1ccc(-c2[nH]ncc2/C=N/n2c(COc3ccccc3)nc3ccccc3c2=O)cc1`, the Potency was inconclusive: 29.1 µM [inhibitor, single point].
In the case of `COc1ccc(CCNC(=O)C2CCC(=O)N2CCc2ccccc2)cc1OC` (stereo not given), the Potency is reported as “inactive”.
In the case of `O=C(Nc1ccc(-c2cc(C(F)(F)F)nn2-c2ccccc2)cc1)c1cccc(F)c1`, the Potency is reported as inconclusive: 29.1 µM [inhibitor, single point].
For `O=Cc1nccc2ccccc12`, the Potency was active: 9.2 µM.
In the case of `O=c1cc(CSc2ncn[nH]2)[nH]c2c(Cl)cccc12`, the Potency is reported as inconclusive: 29.1 µM [inhibitor, single point].
With `Cc1ccc(S(=O)(=O)N2CCCCC2CCNC(=O)C(=O)NC2CC2)cc1` (stereo not given) the Potency was inconclusive: 23.1 µM [inhibitor, single point].
With `COc1ccc(-n2c(SCC(=O)NCC3CCCO3)nc3c([nH]c4ccccc43)c2=O)cc1OC` (stereo not given) the Potency was “inactive”.
For `Cc1ccc2c(c1)N(C(=O)CCC(=O)Nc1ccccc1Cl)CC(C)O2` (stereo not given), the Potency was inconclusive: 29.1 µM [inhibitor, single point] and inconclusive: 18.4 µM [inhibitor, partial curve].
For `O=C(C=Cc1ccccn1)c1ccccc1O`, the Potency was active: 2.91 µM.
In the case of `CC(C)Oc1ccccc1OCCCOc1cccc2cccnc12`, the Potency is reported as inconclusive: 25.9 µM [inhibitor, single point].
For `COc1nccnc1NS(=O)(=O)c1ccc(NC(=S)NC(=O)c2cccnc2)cc1`, the Potency was “inactive”.
In the case of `C=CCn1c(-c2cccc(S(=O)(=O)N3CCOCC3)c2)n[nH]c1=S`, the Potency is reported as “inactive”.
With `O=C(Nc1nnc(C23CC4CC(CC(C4)C2)C3)s1)c1ccc(N2C(=O)CCC2=O)cc1` the Potency was inconclusive: 20.6 µM [inhibitor, single point].
For `c1ccc(CNCCC(Cc2ccccc2)c2ccco2)cc1` (stereo not given), the Potency was inconclusive: 25.9 µM [inhibitor, single point].
For `CCOC(=O)c1c(C)[nH]c(C)c1S(=O)(=O)NCC(=O)Nc1cccc(C(F)(F)F)c1`, the Potency was inconclusive: 20.6 µM [inhibitor, single point].
For `Cc1ccc(N2CCN(c3ccc(C)cc3)C2c2cccnc2)cc1`, the Potency was active: 23.1 µM.
In the case of `O=C(CSc1nnc(NC(=O)NC2CCCCC2)s1)Nc1ccccc1F`, the Potency is reported as inconclusive: 29.1 µM [inhibitor, single point].
For `COC(=O)C1=C(COc2ccccc2)NC(=O)NC1c1ccc(Cl)cc1` (stereo not given), the Potency was inconclusive: 16.4 µM [inhibitor, single point].
In the case of `COc1ccc(OC)c(Nc2nc(-c3ccc(C)cc3)nc3ccccc23)c1`, the Potency is reported as inconclusive: 11.6 µM [inhibitor, partial curve, poor fit].
For `Cc1cccc(N2CCN(C(=O)c3cccc(S(=O)(=O)N4CCOCC4)c3)CC2)c1C`, the Potency was inconclusive: 29.1 µM [inhibitor, single point].
In the case of `O=C(CC1N=C2c3ccccc3N=C(SCc3ccc(Cl)cc3)N2C1=O)NCCc1ccccc1` (stereo not given), the Potency is reported as inconclusive: 29.1 µM [inhibitor, single point].
With `CCOC(=O)C1CCN(c2nc(C)nc3c2oc2ccccc23)CC1` the Potency was active: 23.1 µM.
In the case of `Cn1ncc2c(Nc3ccc(O)cc3)nc(Cl)nc21`, the Potency is reported as “inactive”.
In the case of `O=S(=O)(Nc1cccc(-c2nc3cccnc3s2)c1)c1ccc2c(c1)OCCO2`, the Potency is reported as inconclusive: 20.6 µM [inhibitor, single point].
In the case of `CCN(CC)C(=O)c1ccc(Oc2ccc([N+](=O)[O-])cc2Cl)cc1`, the Potency is reported as inconclusive: 29.1 µM [inhibitor, single point].
In the case of `ClC(=Nc1cccc2ccccc12)N(c1ccccc1)c1ccccc1`, the Potency is reported as active: 17.8 µM.
In the case of `COc1cccc(/C=C/c2ccc3cccc(O)c3n2)c1`, the Potency is reported as inconclusive: 0.651 µM [inhibitor, full curve, poor fit].
In the case of `O=C(NC(=S)Nc1ccccn1)c1ccccc1`, the Potency is reported as “inactive”.
In the case of `O=C(NCc1ccc(F)cc1)N1[C@H]2CC[C@@H]1C=C(c1ccc(F)cc1OCc1ccccc1)C2`, the Potency is reported as inconclusive: 6.51 µM [inhibitor, full curve].
In the case of `CCN(c1ccc(OC)cc1)S(=O)(=O)c1ccc(-c2ccc(=O)[nH]n2)o1`, the Potency is reported as inconclusive: 29.1 µM [inhibitor, single point].
With `CC(=O)O[C@H]1c2ccccc2-c2ccccc2[C@@H]1OC(C)=O` the Potency was “inactive”.
In the case of `O=c1cc(-c2ccccc2F)oc2ccccc12`, the Potency is reported as inconclusive: 7.31 µM [inhibitor, partial curve, poor fit].
In the case of `CCOc1ccc(C2c3c(-c4ccc(C)cc4)n[nH]c3C(=O)N2c2ccc(Cl)cc2)cc1` (stereo not given), the Potency is reported as inconclusive: 29.1 µM [inhibitor, single point].
For `O=C(c1cccc(N2C(=O)C3C4C=CC(C4)C3C2=O)c1)N1CCCc2ccccc21` (stereo not given), the Potency was “inactive”.
With `CC(C)c1ccc(CCNC(=O)c2ccc([N+](=O)[O-])cc2)cc1` the Potency was inconclusive: 16.4 µM [inhibitor, partial curve].
In the case of `CCCCN(C(=O)CSCC(=O)Nc1cccc(C)c1)c1c(N)n(Cc2ccccc2)c(=O)[nH]c1=O`, the Potency is reported as “inactive”.
With `O=S(=O)(c1cccc(-c2nnc(SCc3nc4ccccc4s3)o2)c1)N1CCOCC1` the Potency was active: 18.4 µM.
With `CN(C)S(=O)(=O)c1cccc(C(=O)Nc2ccccc2N2CCCCC2)c1` the Potency was inconclusive: 29.1 µM [inhibitor, single point].
In the case of `CCOC(=O)c1sc(-c2ccc(Cl)cc2Cl)nc1O`, the Potency is reported as active: 25.9 µM.
In the case of `COc1ccccc1NC(=O)COc1ccc2ccccc2c1`, the Potency is reported as inconclusive: 20.6 µM [inhibitor, single point].
For `O=C(CN1CCOCC1)NNC(=O)c1ccc(Cl)cc1`, the Potency was “inactive”.
For `Cc1ccc(-c2ccc(C(=O)Nc3cccc(F)c3)o2)c2ccccc12`, the Potency was inconclusive: 29.1 µM [inhibitor, single point].
With `Cc1nc(SC(C)C(=O)c2c(N)n(C)c(=O)n(C)c2=O)c2c(C)c(C)sc2n1` (stereo not given) the Potency was inconclusive: 18.4 µM [inhibitor, single point].
With `O=C(Cc1cccc2ccccc12)NCC(=O)N1CCN(Cc2cccc(C(F)(F)F)c2)CC1` the Potency was active: 10.3 µM.
With `Cc1ccc(-c2nc3ccccc3[nH]2)cc1NC(=O)/C=C/c1ccco1` the Potency was inconclusive: 29.1 µM [inhibitor, single point].
With `Cc1ccc(F)cc1C(=O)N1CCC1(C)C(=O)O` (stereo not given) the Potency was “inactive”.
With `NS(=O)(=O)c1ccc(CCNC(=O)COc2ccc3c4c(c(=O)oc3c2)CCC4)cc1` the Potency was “inactive”.
For `COc1ccccc1C(=O)Nc1ccc(OCC(=O)N2C(C)CCCC2C)cc1` (stereo not given), the Potency was “inactive”.
For `Cc1cccc(-n2ncc3c(N(C)C4CCCCC4)ncnc32)c1`, the Potency was inconclusive: 29.1 µM [inhibitor, single point].
In the case of `CN(C)S(=O)(=O)c1ccc(N2C(=O)CC2(/C=C/c2ccccc2)C(=O)NC2CCCC2)cc1` (stereo not given), the activity change, negative = growth inhibition is reported as inconclusive: -31.2% [inhibitor].
For `COCCNC(=O)Cn1cc(S(=O)(=O)Cc2ccccc2Cl)c2ccccc21`, the Potency was “inactive”.
For `CCCCOc1ccc(N2C(=O)CC(N(O)c3ccccc3)C2=O)cc1` (stereo not given), the Potency was inconclusive: 29.1 µM [inhibitor, single point].
For `CC1=C(C(=O)Nc2ccccc2C)C(c2cccnc2)n2nc(SCc3ccccc3)nc2N1` (stereo not given), the Potency was inconclusive: 16.4 µM [inhibitor, single point].
For `CC(=O)c1ccc(OCCCOc2cccc3cccnc23)cc1`, the Potency was inconclusive: 29.1 µM [inhibitor, single point].
In the case of `Cn1c(=O)c2cc(NC(=O)Nc3cccnc3)ccc2n1Cc1cccc(C(F)(F)F)c1`, the Potency is reported as inconclusive: 20.6 µM [inhibitor, single point].
With `CC(C)=CCN1CCN(Cc2nc(-c3ccccc3)cs2)CC1CCO` (stereo not given) the Potency was inconclusive: 23.1 µM [inhibitor, single point].
